Results as given in article PMC4336329 (PLoS ONE, 2015).
Among all 310,000 compounds or so, about 14,000 (4.5%) showed an effect of 50% or more. Effects have a minus sign here. This is one part of the list.

molecular target: human ether-à-go-go-related gene (hERG) potassium channel (human, UniProt Q12809); assay: primary screen, population patch clamp on CHO cells stably expressing hERG
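Further: peak tail current of the secondary pulse compared with the same well before compound.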

human ether-à-go-go-related gene (hERG) potassium channel, sequence (Q12809 whole entry, looked up): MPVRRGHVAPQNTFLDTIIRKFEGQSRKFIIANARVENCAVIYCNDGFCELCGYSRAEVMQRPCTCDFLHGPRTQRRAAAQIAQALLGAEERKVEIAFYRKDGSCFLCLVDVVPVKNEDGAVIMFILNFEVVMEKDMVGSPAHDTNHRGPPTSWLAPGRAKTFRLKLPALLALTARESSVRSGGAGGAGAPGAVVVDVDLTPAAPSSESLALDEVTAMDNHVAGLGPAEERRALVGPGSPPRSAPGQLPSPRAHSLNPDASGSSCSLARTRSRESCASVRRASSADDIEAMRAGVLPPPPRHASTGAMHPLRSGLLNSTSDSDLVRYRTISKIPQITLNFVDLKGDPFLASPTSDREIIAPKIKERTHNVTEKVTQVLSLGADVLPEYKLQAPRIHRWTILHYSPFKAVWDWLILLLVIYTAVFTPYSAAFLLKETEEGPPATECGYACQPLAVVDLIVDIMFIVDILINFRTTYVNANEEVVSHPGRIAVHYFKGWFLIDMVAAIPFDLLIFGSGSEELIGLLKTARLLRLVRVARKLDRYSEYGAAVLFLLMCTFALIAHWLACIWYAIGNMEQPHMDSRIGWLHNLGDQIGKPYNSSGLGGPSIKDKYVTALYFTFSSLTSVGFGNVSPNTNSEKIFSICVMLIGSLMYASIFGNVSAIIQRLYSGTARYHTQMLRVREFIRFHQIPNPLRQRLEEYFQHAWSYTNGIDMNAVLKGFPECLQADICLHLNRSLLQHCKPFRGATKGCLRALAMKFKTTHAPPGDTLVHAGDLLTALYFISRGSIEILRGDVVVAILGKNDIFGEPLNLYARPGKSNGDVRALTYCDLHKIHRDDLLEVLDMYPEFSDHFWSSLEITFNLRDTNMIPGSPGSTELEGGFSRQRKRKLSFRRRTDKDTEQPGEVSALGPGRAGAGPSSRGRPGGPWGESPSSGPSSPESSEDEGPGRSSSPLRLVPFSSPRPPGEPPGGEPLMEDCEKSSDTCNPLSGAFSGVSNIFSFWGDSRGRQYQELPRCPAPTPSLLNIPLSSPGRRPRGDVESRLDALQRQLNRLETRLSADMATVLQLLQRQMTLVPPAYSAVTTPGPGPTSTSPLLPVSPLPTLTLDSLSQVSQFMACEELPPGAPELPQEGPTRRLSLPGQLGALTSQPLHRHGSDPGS

SMILES	hERG current change (%, negative = inhibition) at 10uM
O=C(COc1ccc(S(=O)(=O)NC2CCCCC2)cc1Cl)NCC1CCCO1 (stereo not drawn)	-2.36%
CC(=O)CSc1nnc(-c2ccc(S(=O)(=O)N3CCOCC3)cc2)n1C	17.6%
C=CCSc1nnc(-c2c[nH]c3ccccc23)n1CCOC	4.36%
COCCOC(=O)C1=C(C)NC(=S)NC1/C=C/c1ccccc1 (stereo not drawn)	4.65%
COc1ccc(OC)c(-c2cc(C(=O)N3CCN(c4ccccc4)CC3)no2)c1	-7.57%
O=C(OCC(=O)N1CCN(S(=O)(=O)c2ccccc2)CC1)c1ccc([N+](=O)[O-])o1	-14.4%
N#CCSc1nnc(CNc2cccc(Cl)c2)o1	5.28%
O=[N+]([O-])c1c(NCCCO)cc(Sc2nc3ccccc3s2)c2nonc12	7.09%
O=C(COc1ccc(Cl)cc1)NCc1nnc(SCC(=O)Nc2ccc3c(c2)OCCO3)o1	-5.01%
Cc1cc(=O)oc(C)c1C(=O)NCCc1ccc(F)cc1	-6.33%
CCOc1ccc(OCCCCn2cnc3ccccc3c2=O)cc1	19.2%
Cc1cccc(-c2nsc(SCC(=O)NCc3ccc4c(c3)OCO4)n2)c1	-2.14%
CCCCOC(=O)c1ccc(NC(=O)C(=O)NCc2ccncc2)cc1	-8.29%
C=CCN1C(=O)c2ccc(C(=O)NCC(c3ccccc3)N(C)C)cc2C1=O (stereo not drawn)	5.78%
CCn1ncc(Cl)c1C(=O)Nc1cc([N+](=O)[O-])ccc1OC	2.58%
C=CCNCCOCCSc1ccc(Cl)cc1.O=C(O)C(=O)O	-28.9%
NC(=O)C1CCN(C(=O)CC2C(=O)NCCN2Cc2cccc(Oc3ccccc3)c2)CC1 (stereo not drawn)	9.11%
COc1ccc(N=C2CCCN2CC(N)=O)cc1.Cl	-0.486%
COc1ccc(C(=O)Nc2cc3c4c(c2)C(C)C(=O)N4CCC3)cc1OC (stereo not drawn)	-4.01%
CC1c2ccsc2CCN1S(=O)(=O)c1cccs1 (stereo not drawn)	-13.2%
CCN1CCN(CCNC(=O)c2ccc(/C=C3/Sc4ccccc4N(Cc4cccc(Cl)c4)C3=O)cc2)CC1	11.4%
CCOc1ccccc1NC(=O)c1cc(S(=O)(=O)N2CCC3(CC2)OCCO3)ccc1F	-6.07%
C=C1CCN([C@H](C(=O)Nc2ccc(OC)cc2)C(C)C)S(=O)(=O)c2ccccc21	-8.73%
COc1ccc(Cl)c2sc(N3CCN(C(=O)C4=COCCO4)CC3)nc12	-15.7%
CCOc1cccc2sc(N(CCN(CC)CC)C(=O)c3ccc(S(=O)(=O)N4CCCC4)cc3)nc12.Cl	-24.2%
CCn1cc(C(=O)N2CCCC2)c(=O)c2cc(S(=O)(=O)N3CCOCC3)ccc21	19.1%
Nc1ccc(C(=O)OCc2nc3cc4ccccc4cc3[nH]2)cc1	-11.2%

SMILES	hERG current change (%, negative = inhibition) at 10uM
CCOC(=O)c1sc(NC(=O)c2cc3n(n2)C(C(F)(F)F)CC(c2cccs2)N3)c(C(=O)OCC)c1C (stereo not drawn)	2.85%
COCCNC(=O)CCc1c(C)nc2c(c(C)nn2-c2ccc(C)c(C)c2)c1C	-3.85%
Cc1cccc(OCC(=O)O/N=C(\N)c2ccccn2)c1	9%
Cc1ccccc1C(=O)c1cccn1CC(=O)NC(C)c1ccccc1 (stereo not drawn)	5.18%
CCCCn1c(N)c(N(CCC(C)C)C(=O)c2cc(-c3ccco3)nc3ccccc23)c(=O)[nH]c1=O	7.31%
CCOC(CNC(=O)C1CCN(S(=O)(=O)c2ccc3nc4c(c(C(=O)O)c3c2)CC(C)CC4)CC1)OCC (stereo not drawn)	0.872%
COc1ccc2[nH]c(C(=O)N/N=C/c3ccccc3OC)cc2c1	-3.5%
O=C(NC(=S)Nc1ccc(CN2CCOCC2)cc1)c1ccccc1[N+](=O)[O-]	3.04%
Cc1c(N=C2NC(=O)C(CC(=O)Nc3ccccc3)S2)c(=O)n(-c2ccccc2)n1C (stereo not drawn)	-0.455%
CN(Cc1ccccc1)C(=O)c1[nH]cnc1C(=O)N[C@@H](Cc1ccccc1)C(=O)OCc1ccccc1	4.63%
COc1ccc(C(=O)NC(=O)Nc2cc(C)ccn2)cc1	3.99%
N#Cc1cccc(C#N)c1N1CCC(C#N)CC1	8.14%
O=[N+]([O-])c1ccc(N2CCN(Cc3cccc([N+](=O)[O-])c3)CC2)cc1	-71.8%
CC(=O)N1N=C2c3ccccc3CCC2C1c1cccs1 (stereo not drawn)	-2.38%
CCn1c(SC)nnc1C1CCCN(CC(=O)Nc2ccccc2N2CCOCC2)C1 (stereo not drawn)	-5.55%
CC(=O)Nc1ccc(C(=O)CSc2ncn(-c3ccccc3)n2)cc1	5.72%
CCC1(c2ccc(F)cc2)NC(=O)N(CC(=O)N2CCc3ccccc3C2)C1=O (stereo not drawn)	-7.25%
CCCOC(=O)Nc1ccc(N2CCCCC2)cc1	-11.7%
COc1ccc(S(=O)(=O)c2nnn(-c3cccc(Cl)c3)c2N)cc1	6.97%
O=C1c2ccccc2NC(c2ccc(-c3cccs3)o2)N1O (stereo not drawn)	-4.21%
COC(=O)C1=C(C)N(Cc2ccccc2)C(=O)N[C@H]1c1cccs1	-8.13%
O=C(Nc1cnn(Cc2ccc(Cl)cc2)c1)c1cccs1	-2.52%
CC(=O)Nc1nc(-c2ccc3c(c2)CC(C)N3C(=O)C2CC2)c(C)s1 (stereo not drawn)	4.04%
COc1ccccc1NS(=O)(=O)c1cccc(NC(=O)C2CC(=O)N(Cc3ccccc3)C2)c1 (stereo not drawn)	6.4%
CC1CCN(CCc2nc3cc(NC(=O)NC4CCCCC4)ccc3n2C)CC1	-15.1%
Cc1nn2c(N)csc2nc1=O	7.5%
O=C(COC(=O)c1cc(NS(=O)(=O)c2cccs2)ccc1O)Nc1cc(Cl)ccc1Cl	29.2%
